Experimental data reported in the supplement of paper PMC3334620.
Over roughly 33,000 sequences, “E-score (-0.5 to 0.5)” has its median near -0.021; the highest 2% begin near 0.32. The list shows a part of the results.

Each sequence was assayed against T1, Zap1 (UniProt P47043) (assay: PBM E-score (8-mer binding enrichment) (E-score (-0.5 to 0.5)); higher = stronger / more preferred TF binding; most listed sequences are background and not binding sites). Conditions: protein concentration: 200 nM; construct: GST-full length.
T1 sequence: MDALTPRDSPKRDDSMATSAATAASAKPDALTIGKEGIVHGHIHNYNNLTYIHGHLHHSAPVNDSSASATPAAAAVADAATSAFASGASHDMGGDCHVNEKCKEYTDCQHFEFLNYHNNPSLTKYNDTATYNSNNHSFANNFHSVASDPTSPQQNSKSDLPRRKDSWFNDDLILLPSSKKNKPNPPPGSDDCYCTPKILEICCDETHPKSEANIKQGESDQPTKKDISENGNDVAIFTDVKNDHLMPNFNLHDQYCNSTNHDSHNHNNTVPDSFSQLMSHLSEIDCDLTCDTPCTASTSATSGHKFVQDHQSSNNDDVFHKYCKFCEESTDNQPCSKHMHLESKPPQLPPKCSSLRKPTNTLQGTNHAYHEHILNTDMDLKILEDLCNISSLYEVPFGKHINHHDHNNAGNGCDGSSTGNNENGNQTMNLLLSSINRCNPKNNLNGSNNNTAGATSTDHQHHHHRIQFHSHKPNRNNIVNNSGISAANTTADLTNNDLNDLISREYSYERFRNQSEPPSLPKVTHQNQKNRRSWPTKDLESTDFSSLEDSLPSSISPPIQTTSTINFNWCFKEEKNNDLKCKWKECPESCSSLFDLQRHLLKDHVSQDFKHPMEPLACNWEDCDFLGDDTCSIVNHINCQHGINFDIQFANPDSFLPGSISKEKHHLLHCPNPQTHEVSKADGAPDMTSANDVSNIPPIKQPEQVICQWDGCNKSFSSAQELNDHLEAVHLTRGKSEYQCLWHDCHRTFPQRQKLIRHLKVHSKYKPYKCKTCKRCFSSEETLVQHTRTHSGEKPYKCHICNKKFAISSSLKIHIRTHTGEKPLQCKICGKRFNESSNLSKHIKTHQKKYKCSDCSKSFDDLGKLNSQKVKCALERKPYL
Procedure, shortened: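 The E-score, a modified Wilcoxon-Mann-Whitney statistic, was computed by the Universal PBM Analysis Suite for every ungapped eight-base word pooled with its reverse complement. Scans behind it were normalised with masliner after bound GST-tagged yeast transcription factors were detected with fluorescent anti-GST. The proteins, at about 100-200 nM, had been applied to universal all-10-mer Agilent arrays made double-stranded by primer extension.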

Sequence	PBM E-score
ATGAGCGG	-0.167
AGACGACA	-0.1
ACCATAAG	0.0852
ATATCTGA	0.0283
GAGATTGA	-0.0354
ATGCCGCA	0.0134
ACCTGGAA	0.22
CATTCCCA	-0.203
GACCAAGA	0.0225
CAGACGTA	-0.0838
CAGGGATA	-0.0154
TTCACAAA	0.135
GCTCATCC	-0.215
CCCAGCTA	-0.152
AAACCGCC	0.173
CGCACGTA	-0.125
ACGCCCCC	-0.261
TTACCTAA	0.175
GAATATTA	0.137
GGGCGTAC	0.0025
CTGCGGTA	0.265
ACCATTTA	0.189
CCAATGCG	-0.0619
GTTGAAGA	-0.0696
CGCCCAAC	-0.176

Sequence	PBM E-score
CAATGCGA	-0.11
ACCGCTGG	0.0967
AGGGACAG	-0.248
TCATTGCA	0.0366
AGAGTAAT	0.0866
TCTCAACA	0.205
GAACTCGC	0.00491
CCCGCGCC	-0.0593
ACTTCCAG	-0.265
AGTAGCCG	-0.123
AGAACGTA	-0.186
AATTAGCG	-0.0254
GAAGAGGA	-0.272
ACTCTTCT	-0.248
AGGTCCGA	-0.0292
CTAGCTCC	-0.246
ATTCTAAG	0.118
AATGTCTC	-0.203
AACAATGA	0.108
CCCTCCCC	0.147
CCACCCCG	0.0489
CCTCAAAC	0.0422
ATGTGAAG	-0.00714
CATCATTC	-0.157
AATTGAAA	0.19

Sequence	PBM E-score
TGTAGTAA	0.035
GATAATCA	0.0211
CACTGAGG	0.0409
GCTCTAAC	-0.1
CCAGAATC	-0.00435
ATTCTGAC	-0.125
CTCGGCTC	-0.0891
CAGAAGTA	0.202
CATGGGGC	-0.0561
GCAGCCAA	-0.00309
ATGAGTGA	0.1
TCAACCCA	0.185
AGGTAAGC	-0.0806
TCAGTGGA	-0.041
CCAGCCGG	0.0706
ACAAACGA	0.186
TGCACGAA	0.0909
AGTGATAG	-0.0294
TCAAAAAA	0.202
AAGTAACT	-0.0363
ACTGTTAT	0.159
ATCTGCAT	0.0146
ATCGACCG	-0.132
CGAGTTGC	-0.108
GCCTCACA	-0.0151

Sequence	PBM E-score
CGAAATCA	0.217
CGAGAAGA	-0.0799
ATCGCGAA	0.22
CTGGGCGA	-0.18
AAGGCGAT	-0.181
AACACTTA	-0.0773
CATGGATA	0.0373
GCGAAAAC	0.0649
AATAACGT	0.0381
CGGGAGTC	-0.00889
CGTTAACA	0.00812
ATAACAGG	0.0159
AAGATGAG	-0.243
GAGCTAGC	-0.179
CTCGCTAC	-0.136
CCAAGGGG	0.194
GATAGTGA	-0.119
AAACCATA	0.202
GAGCCATA	0.0499
CCACGCGA	0.0769
AAGAGCAC	-0.0466
CGTGTCGC	-0.0752
CACCAACC	0.131
ACAATTAA	0.142
ACAGTCAG	-0.111

Sequence	PBM E-score
CACACTGG	-0.204
CAATCAGA	-0.147
AGAAGCGA	-0.0497
CATATGCG	-0.0511
AACCTCAA	0.263
GGCTCTTA	-0.27
CGTATTTC	-0.0254
GTCCGGTA	-0.172
ATTTACCG	-0.0582
ATGGGGTA	0.326
TCGGAAGA	-0.143
ATGGATCC	-0.13
GATTCGAC	0.0184
GGGTTGTA	0.35
GTACCAAA	0.259
CGAGGACG	-0.0989
TGCGCGAA	0.127
TCCATCGA	-0.0964
AAATCGCG	0.0597
GGTAGAGA	0.0668
CAATACCA	0.241
TCTACTAA	0.201
ACGGAGCA	-0.338
ACTTTACT	-0.00115
CCTCCACC	-0.0195

Sequence	PBM E-score
CAACTGGC	-0.0185
GAGATCGA	-0.0323
GCTGACCC	0.0617
ACGATCAA	-0.0783
GCGGCGAA	-0.0534
ATTGTAGA	0.0477
TAGTAGAA	-0.0183
GGGCTTAA	-0.0211
AGTTATTC	0.0952
CTGGGGAC	-0.143
GGGGTACC	0.424
ATACAGTG	0.154
ACTTGGTA	0.0925
CCATACGC	-0.112
AGGGTAGG	0.32
AGTGGTTA	0.434
AAGCCTTA	-0.245
AAAGACTG	-0.268
GTCGTGCA	0.0329
GCCTTGAC	0.052
AAAAAGGT	0.403
AAGTAACA	-0.0158
CCTGCTCA	-0.0182
CCGCTGAA	0.0515
ACTACGAG	0.0224

Sequence	PBM E-score
AAGGTCTA	0.157
AATCGCAT	0.025
CCAACACA	0.167
TATTTGAA	0.189
ATTGAAGC	-0.0429
CTTAGACA	-0.104
ACTCATAC	0.0265
CTAGTAGC	-0.168
CCAGCGGC	-0.172
CCTTAGCG	-0.0794
GCCCAGAA	-0.0621
CGGTGACG	0.0241
GCGCGCAC	0.0311
CTCATCTC	-0.121
ATAACTAT	0.255
GGCATGAC	-0.132
TACTAATA	0.118
CACTTTTA	0.0635
CGCCTCAA	-0.107
AATCCGGA	-0.0976
AATGCGTG	-0.103
CGTGTGTA	0.0585
